In the supplement of paper PMC12067230:
The data scatter; read single values as rough.

Test: amyloid nucleation score relative to library mode (yeast Sup35 reporter selection) (log enrichment difference); higher = more amyloid nucleation; sequences are the first 22 residues of the Bri2 peptide extended by up to 12 random residues
Conditions: random library (experiment): 1;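 active = nucleation score significantly above 0 at FDR 0.05; inactive = not significantly above 0 or absent from output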
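Further: [psi-pin-] Saccharomyces cerevisiae expressing SupN fusions, induced by 100 µM Cu2SO4, selected 7 d at 30 °C without adenine and uracil, scored by deep sequencing of output versus input.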

Row | Sequence | amyloid nucleation score
1 | EASNCFAIRHFENKFAVETLICHVACVRVRYGLW | inactive
2 | EASNCFAIRHFENKFAVETLICYHQSDESGCRGS | inactive
3 | EASNCFAIRHFENKFAVETLICLLPWKWGESKGS | 7.68
4 | EASNCFAIRHFENKFAVETLICNAYMICYRPRWV | inactive
5 | EASNCFAIRHFENKFAVETLICCECV | inactive
6 | EASNCFAIRHFENKFAVETLICGHTLQSQTGEVR | inactive
7 | EASNCFAIRHFENKFAVETLICLSTDVVQDLCWG | 4
8 | EASNCFAIRHFENKFAVETLICMWGHRWQRKVKE | inactive
9 | EASNCFAIRHFENKFAVETLICIDHMALPWFTGA | 6.15
10 | EASNCFAIRHFENKFAVETLICNRCKYDQCELRA | inactive
11 | EASNCFAIRHFENKFAVETLICHSQNSRPFGSSC | inactive
12 | EASNCFAIRHFENKFAVETLICFVRAHGCVWQEG | inactive
13 | EASNCFAIRHFENKFAVETLICAIHFFIGGRGRA | inactive
14 | EASNCFAIRHFENKFAVETLICENVIRIHFQVHR | inactive
15 | EASNCFAIRHFENKFAVETLICHDWGNL | inactive
16 | EASNCFAIRHFENKFAVETLICRISSIHYSCKMW | inactive
17 | EASNCFAIRHFENKFAVETLICLLNYSVTLVCCP | inactive
18 | EASNCFAIRHFENKFAVETLICDMGCARITVKAG | inactive
19 | EASNCFAIRHFENKFAVETLICLGNANDTSPVLI | inactive
20 | EASNCFAIRHFENKFAVETLICDALPAESASRIL | inactive
21 | EASNCFAIRHFENKFAVETLICWDTDCGPEEKGR | inactive

Row | Sequence | amyloid nucleation score
22 | EASNCFAIRHFENKFAVETLICFTKRGCQHRSHS | inactive
23 | EASNCFAIRHFENKFAVETLICRIRRTGHVMEQG | inactive
24 | EASNCFAIRHFENKFAVETLICCGFKPRGSMVGR | 7.57
25 | EASNCFAIRHFENKFAVETLICTTIYTGRTLNTL | 1.25
26 | EASNCFAIRHFENKFAVETLICELIYPSQVFARV | -0.00976
27 | EASNCFAIRHFENKFAVETLICCYS | inactive
28 | EASNCFAIRHFENKFAVETLICAL | inactive
29 | EASNCFAIRHFENKFAVETLICLVVYRGVEAVRL | 2.69
30 | EASNCFAIRHFENKFAVETLICRLTSTSSSMCVA | inactive
31 | EASNCFAIRHFENKFAVETLICDSSWVDTSGATQ | 0.514
32 | EASNCFAIRHFENKFAVETLICEGIGGSSRASEG | inactive
33 | EASNCFAIRHFENKFAVETLICTLTYRFYLCRTT | inactive
34 | EASNCFAIRHFENKFAVETLICVSSTPVMEECHV | inactive
35 | EASNCFAIRHFENKFAVETLICLKA | inactive
36 | EASNCFAIRHFENKFAVETLICWTLFLLL | inactive
37 | EASNCFAIRHFENKFAVETLICPWHRVWVRPSGT | inactive
38 | EASNCFAIRHFENKFAVETLICLCTAPDRYGSLL | inactive
39 | EASNCFAIRHFENKFAVETLICMENSSCVECCGG | inactive
40 | EASNCFAIRHFENKFAVETLICRFIAVVSEFSIK | inactive
41 | EASNCFAIRHFENKFAVETLICHSDWCWKMDLPC | inactive
42 | EASNCFAIRHFENKFAVETLICAIG | inactive

Row | Sequence | amyloid nucleation score
43 | EASNCFAIRHFENKFAVETLICLNMLRTWRASVA | -0.195
44 | EASNCFAIRHFENKFAVETLICWKMRFP | -0.029
45 | EASNCFAIRHFENKFAVETLICLLSGRWRSGLVG | inactive
46 | EASNCFAIRHFENKFAVETLICGP | inactive
47 | EASNCFAIRHFENKFAVETLICCVGLGYIPKVCK | 6.43
48 | EASNCFAIRHFENKFAVETLICRWGEVARLYFCW | inactive
49 | EASNCFAIRHFENKFAVETLICLRNVGESRITIK | 0.307
50 | EASNCFAIRHFENKFAVETLICVSRWDTSFKPYV | inactive
51 | EASNCFAIRHFENKFAVETLICVCGRTSCSDSLL | inactive
52 | EASNCFAIRHFENKFAVETLICWRLLL | inactive
53 | EASNCFAIRHFENKFAVETLICLV | inactive
54 | EASNCFAIRHFENKFAVETLICVTMWG | inactive
55 | EASNCFAIRHFENKFAVETLICNWCGYGVVADVR | 5.64
56 | EASNCFAIRHFENKFAVETLICGVLGDIQSSM | 5.66
57 | EASNCFAIRHFENKFAVETLICMVRWP | inactive
58 | EASNCFAIRHFENKFAVETLICWCGVQGRVARFG | 3.39
59 | EASNCFAIRHFENKFAVETLICLCSPWRVWFRAV | -0.0755
60 | EASNCFAIRHFENKFAVETLICAA | inactive
61 | EASNCFAIRHFENKFAVETLICHWCGQESRSKIK | inactive
62 | EASNCFAIRHFENKFAVETLICCSRGCSRTHMGI | 4.24

Same assay, conditions: random library (experiment): 2

Row | Sequence | amyloid nucleation score
63 | EASNCFAIRHFENKFAVETLICIYPRARVYLLSN | inactive
64 | EASNCFAIRHFENKFAVETLICTLRLFSVYMVVV | inactive
65 | EASNCFAIRHFENKFAVETLICLETVGIMHPHDL | 2.8
66 | EASNCFAIRHFENKFAVETLICGAKKRKTARA | inactive
67 | EASNCFAIRHFENKFAVETLICTCLGLSCLWNLC | 8.34
68 | EASNCFAIRHFENKFAVETLICPTWLMW | 4.97
69 | EASNCFAIRHFENKFAVETLICTRGVWNIWVMQW | inactive
70 | EASNCFAIRHFENKFAVETLICFNWLYPIPSR | 5.22
71 | EASNCFAIRHFENKFAVETLICQKSSGELVKLFC | 3.81
72 | EASNCFAIRHFENKFAVETLICHGTKTTLPRFM | 1.58
73 | EASNCFAIRHFENKFAVETLICCVGVRHTLIHDV | 5.15
74 | EASNCFAIRHFENKFAVETLICWKQKGQEPNRDM | inactive
75 | EASNCFAIRHFENKFAVETLICGIFVRVEHGFHE | 5.47
76 | EASNCFAIRHFENKFAVETLICEIRLNSRYFRVW | inactive
77 | EASNCFAIRHFENKFAVETLICCMQVRWDFTNIG | inactive
78 | EASNCFAIRHFENKFAVETLICTRP | inactive
79 | EASNCFAIRHFENKFAVETLICFVHFIKWCGF | inactive
80 | EASNCFAIRHFENKFAVETLICILLSCYQHVS | inactive
81 | EASNCFAIRHFENKFAVETLICLHTCAVTYLWG | inactive
82 | EASNCFAIRHFENKFAVETLICFLHSVNNVIYNR | inactive
83 | EASNCFAIRHFENKFAVETLICGAVR | inactive
84 | EASNCFAIRHFENKFAVETLICVCSIALSSVLL | inactive
85 | EASNCFAIRHFENKFAVETLICVRAGKLCFILMS | inactive
86 | EASNCFAIRHFENKFAVETLICRWNVAVDVGCTR | 0.378
87 | EASNCFAIRHFENKFAVETLICWNSFSILVCVEV | inactive
88 | EASNCFAIRHFENKFAVETLICHGFWRYNKYLVV | inactive
89 | EASNCFAIRHFENKFAVETLICQYCLMDVVGL | inactive
90 | EASNCFAIRHFENKFAVETLICQFKSSLGRCVRV | inactive
91 | EASNCFAIRHFENKFAVETLICGFLYGSVSNVGW | inactive

Same assay, conditions: random library (experiment): 3

Row | Sequence | amyloid nucleation score
92 | EASNCFAIRHFENKFAVETLICRQMTNDETYSTK | inactive
93 | EASNCFAIRHFENKFAVETLICWILGMRRRRLRK | inactive
94 | EASNCFAIRHFENKFAVETLICMRDGCFHPWGPQ | 5.52
95 | EASNCFAIRHFENKFAVETLICALFCTGGSGTVV | -0.196
96 | EASNCFAIRHFENKFAVETLICLCLRNRFIERRV | inactive
97 | EASNCFAIRHFENKFAVETLICTCLIMARCSWME | -0.483
98 | EASNCFAIRHFENKFAVETLICGRRMKSGCDFVR | inactive
99 | EASNCFAIRHFENKFAVETLICTRSFSHSYVCVA | inactive
100 | EASNCFAIRHFENKFAVETLICRLQC | inactive
101 | EASNCFAIRHFENKFAVETLICTCENRRLVGGT | 3.15
102 | EASNCFAIRHFENKFAVETLICHLLWAGKLWAWY | inactive
103 | EASNCFAIRHFENKFAVETLICEEQRWWELSALE | inactive
104 | EASNCFAIRHFENKFAVETLICKLSGFSTTGFAV | inactive
105 | EASNCFAIRHFENKFAVETLICVGRKVKGFAGAG | inactive
106 | EASNCFAIRHFENKFAVETLICLQVREFQ | inactive
107 | EASNCFAIRHFENKFAVETLICLHVMGMLGPR | 3.03
108 | EASNCFAIRHFENKFAVETLICRCTTSPWWTGRV | inactive
109 | EASNCFAIRHFENKFAVETLICPYQVRLA | inactive
110 | EASNCFAIRHFENKFAVETLICYEC | 3.9
111 | EASNCFAIRHFENKFAVETLICVAVGCSCRLKRM | inactive
112 | EASNCFAIRHFENKFAVETLICDWMYHMRVRARY | inactive
113 | EASNCFAIRHFENKFAVETLICGDRRCYVSMELT | inactive
114 | EASNCFAIRHFENKFAVETLICTLNCRLWSCVGV | 5.75
115 | EASNCFAIRHFENKFAVETLICGCKNGWRNWPCW | 5.63
116 | EASNCFAIRHFENKFAVETLICCRILRSGEMSPC | inactive
117 | EASNCFAIRHFENKFAVETLICFSRSYCR | inactive
118 | EASNCFAIRHFENKFAVETLICREGSMSWRPYSW | 3.75
